# Results: PubChem BioAssay AID686979 (National Center for Advancing Translational Sciences (NCATS), 2013)
# The whole screen tested about 420,000 compounds, of which about 50,000 (12%) were called active. Inconclusive means that the source gave no clear call. Such entries were picked first, then a sample of the others. The call rests on the fitted dose curve; in most records, active means well fitted inhibition curve with a large enough effect; inconclusive means small, poorly fitted or top-dose-only effect; inactive means flat fitted curve, though single readings scatter. Potencies of inconclusive entries are left out as doubtful fits.
# Test: qHTS for Inhibitors of human tyrosyl-DNA phosphodiesterase 1 (TDP1): qHTS in cells in presence of CPT; further: nearly all actives have a fitted effect of over 55% in size
# Settings: chicken DT40 Tdp1-/-;hTDP1 cells + 20 nM CPT, ATP luminescence, 48 h; series mostly up to 46.2 µM
# How it was run: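 Chicken DT40 Tdp1-/- cells complemented with human TDP1, 400 cells/well, exposed to compounds plus 20 nM camptothecin for at least 48 h at 37 C; viability read as ATP content by CellTiter-Glo luminescence.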
# Potency means the concentration at half of the fitted maximal effect; tags describe the fitted curve by direction and shape.
row,SMILES,Potency
1,O=C(CSc1nc2nn(-c3ccccc3)c(=O)c-2c2n1CCCCC2)Nc1cccc(F)c1,"inconclusive [inhibitor, single point]"
2,COc1ccc(C2CC(=O)N3CN(Cc4ccco4)CSC3=C2C#N)cc1 (stereo not given),"inconclusive [inhibitor, partial curve, poor fit]"
3,CCCCCC(C)NC(=O)c1cc(S(=O)(=O)N2CCCCC2)ccc1N1CCOCC1 (stereo not given),"inconclusive [inhibitor, single point]"
4,C=CCNc1nc(-c2sc(NC(=O)CC)nc2C)cs1,"inconclusive [inhibitor, partial curve]"
5,CCOC(=O)C(C)n1nc(-c2ccccc2)c2ccccc2c1=O (stereo not given),"inconclusive [inhibitor, single point]"
6,COc1cccc(C(C(=O)NCc2ccccc2)N2CCN(c3ccccc3F)CC2)c1OC (stereo not given),active: 20.6 µM
7,COc1ccccc1NC(=O)c1ccc(NC(=O)C2COc3ccccc3O2)cc1 (stereo not given),"inconclusive [inhibitor, single point]"
8,COc1ccc2[nH]cc(CCNc3cc(-c4ccccc4OC)ncn3)c2c1,active: 16.4 µM
9,Cc1nc(Nc2ccccc2)sc1-c1ccccc1,"inconclusive [inhibitor, single point]"
10,CCCCN(C(=O)CSc1ncn[nH]1)c1c(N)n(Cc2ccccc2)c(=O)[nH]c1=O,inactive
11,COc1ccc2c(c1)O/C(=C\c1ccccc1C)C2=O,"inconclusive [inhibitor, single point]"
12,Cn1c(=O)cc(SCC(=O)NCc2ccco2)c2ccccc21,"inconclusive [inhibitor, partial curve]"
13,Cc1cc([N+](=O)[O-])nn1CCC(=O)NC1CCCCCC1,inactive
14,O=C(COc1ccccc1Cl)N(Cc1cccc(F)c1)C1CCS(=O)(=O)C1 (stereo not given),inactive
15,OCc1nc2ccccc2n1Cc1ccc(Cl)cc1,"inconclusive [inhibitor, single point]"
16,COc1ccc2nc(C)cc(Nc3ccc(N4CCOCC4)cc3)c2c1,"inconclusive [inhibitor, single point]"
17,O=C(/C=C/c1ccc(Cl)cc1)N1CCN(c2ccccc2[N+](=O)[O-])CC1,inactive
18,COc1cc([N+](=O)[O-])cc2sc(NC(=O)C(C)(C)C)nc12,"inconclusive [inhibitor, single point]"
19,Cn1c(=O)c2cc(NC(=O)Nc3ccccc3)ccc2n1Cc1ccccc1,"inconclusive [inhibitor, single point]"
20,COC(=O)N/N=C/c1cn(Cc2ccccc2Cl)c2ccccc12,active: 18.4 µM
21,O=C(c1ccc(-c2ccccc2)cc1)N1CCC2CC1c1cc(-c3ccc4c(c3)OCO4)ccc12 (stereo not given),"inconclusive [inhibitor, single point]"
22,O=C1c2ccccc2CCCC12N=NCC2c1cccc2ccccc12 (stereo not given),"inconclusive [inhibitor, partial curve, poor fit]"
23,COC(=O)c1ccccc1NC(=O)Cn1c(=O)n(CCCC(=O)NCc2ccccc2Cl)c(=O)c2ccccc21,"inconclusive [inhibitor, single point]"

row,SMILES,Potency
1,CCn1cc(Cl)c(C(=O)Nc2c(C)nn(Cc3c(F)c(F)c(F)c(F)c3F)c2C)n1,active: 14.6 µM
2,O=C(Nc1nnc(-c2ccc(Cl)s2)o1)C1CC1,inactive
3,CCc1ccc2oc(-c3ccc(NC(=O)c4cccc(Cl)c4Cl)cc3)nc2c1,"inconclusive [inhibitor, partial curve]"
4,CC(C)(C)n1nnnc1C(c1ccccc1)N1CCN(c2ncccc2C(F)(F)F)CC1 (stereo not given),active: 18.4 µM
5,Clc1cccc(-c2nc3ccc(Cl)cn3c2Cc2ccccc2)c1,"inconclusive [inhibitor, single point]"
6,CCOc1ccc(/C=C/c2nc(C#N)c(NCCCN(C)C)o2)cc1,active: 20.6 µM
7,Cc1ccccc1OCC(=O)NNC(=O)c1cc(S(=O)(=O)N2CCOCC2)ccc1N1CCCC1,inactive
8,CC(C)(C)Cc1c(-c2ccc(Br)cc2)nc2ccc(Cl)cn12,active: 20.6 µM
9,Cc1ccc(NC(=O)c2c(C)nn(-c3ccccc3)c2-n2cccc2)c(Cl)c1,inactive
10,Cc1ccc(S(=O)(=O)N2CCCC2CNC(=O)C(=O)NCc2ccccn2)cc1 (stereo not given),inactive
11,CC(C)(C)NC(=O)CN(CCN1CCOCC1)C(=O)CNS(=O)(=O)c1ccc(Cl)cc1,inactive
12,COc1ccc(N(CC(=O)NCc2ccncc2)S(=O)(=O)c2ccc(C)c([N+](=O)[O-])c2)cc1,"inconclusive [inhibitor, single point]"
13,O=[N+]([O-])c1ccccc1/C=C/C=N/Nc1nc(N2CCCCC2)nc(N2CCCCC2)n1,inactive
14,CCc1cccc(CC)c1NC(=O)Cn1nnc2sc3c(c2c1=O)CCCC3,"inconclusive [inhibitor, partial curve]"
15,Cc1ccc(-c2nnn(CC(=O)N(c3ccccc3)C(C(=O)NC3CCCC3)c3ccco3)n2)o1 (stereo not given),"inconclusive [inhibitor, single point]"
16,CN(C(=O)c1cccc(NC(=O)Cc2cccc(NC(=O)C3CCCN(C(=O)C4CCC4)C3)c2)c1)C1CCC1 (stereo not given),"inconclusive [inhibitor, single point]"
17,CCOC(=O)c1c(NC(=O)COc2ccc(C(C)(C)C)cc2)sc2c1CCCC2,"inconclusive [inhibitor, single point]"
18,O=C(NC1CCOc2ccccc21)c1ccc(Cl)nc1 (stereo not given),inactive
19,CC1CCN(CC(O)CN2c3ccccc3Sc3ccccc32)CC1 (stereo not given),"inconclusive [inhibitor, single point]"
20,Cc1ccc(Cc2nc3ccccc3nc2SCC(=O)NCc2ccccc2Cl)cc1,"inconclusive [inhibitor, partial curve]"
21,O=C(Nc1ccccc1)N1CCN(c2nc(-c3ccccc3)ns2)CC1,active: 23.1 µM
22,Cc1cc(N2CCC(C)CC2)nc(-n2nc(C)cc2C)n1,active: 2.59 µM
